Source: the BET-seq Pho4 binding data (Le et al. 2018)
Some of the results follow. Values were computed here from the reads of four pooled replicates and scatter widely.

What follows are sequences tested against T1, Pho4 (S. cerevisiae) (UniProt P07270) (assay: relative binding free energy (BET-seq); higher = weaker binding). Conditions: reference: library average.
T1 sequence: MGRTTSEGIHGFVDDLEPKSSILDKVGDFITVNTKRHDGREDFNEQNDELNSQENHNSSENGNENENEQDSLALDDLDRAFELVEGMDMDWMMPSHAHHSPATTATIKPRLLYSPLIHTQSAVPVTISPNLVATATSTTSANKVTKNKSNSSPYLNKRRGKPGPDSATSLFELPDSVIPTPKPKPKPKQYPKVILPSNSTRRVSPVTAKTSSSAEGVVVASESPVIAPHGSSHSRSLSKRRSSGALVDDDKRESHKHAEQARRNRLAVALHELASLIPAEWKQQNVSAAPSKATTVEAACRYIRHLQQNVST
For GGTTTCACGTGGTAAA, the “relative binding free energy” value was 0.3 kcal/mol.
In the case of CAGCTCACGTGGTGGT, the “relative binding free energy” value is reported as 0.21 kcal/mol.
In the case of TAGGGCACGTGTATCT, the “relative binding free energy” value is reported as -0.15 kcal/mol.
For GGAGTCACGTGGTCAT, the “relative binding free energy” value was 0.09 kcal/mol.
For TGGGGCACGTGTTAGC, the “relative binding free energy” value was -0.1 kcal/mol.
With TTGTCCACGTGGGGTC the “relative binding free energy” value was 0.03 kcal/mol.
With GTGGGCACGTGACATG the “relative binding free energy” value was 0.01 kcal/mol.
For TGGCGCACGTGAGAGT, the “relative binding free energy” value was 0.19 kcal/mol.
With TGAGGCACGTGGGTCG the “relative binding free energy” value was -0.19 kcal/mol.
In the case of ATGGTCACGTGCGGCG, the “relative binding free energy” value is reported as -0.01 kcal/mol.
With GGCTACACGTGATGTG the “relative binding free energy” value was 0.29 kcal/mol.
GGGTCCACGTGTTGGG was tested, and the “relative binding free energy” value was 0.16 kcal/mol.
GGGAACACGTGTAGGG was tested, and the “relative binding free energy” value was 0.03 kcal/mol.
TCGTTCACGTGGCGTG was tested, and the “relative binding free energy” value was 0.2 kcal/mol.
With AGATTCACGTGAATTT the “relative binding free energy” value was 0.36 kcal/mol.
With TTGCGCACGTGGCTGG the “relative binding free energy” value was -0.22 kcal/mol.
In the case of TGGGGCACGTGATATG, the “relative binding free energy” value is reported as -0.08 kcal/mol.
In the case of CGGTTCACGTGTGGGT, the “relative binding free energy” value is reported as 0.35 kcal/mol.
With CTGGGCACGTGATGTG the “relative binding free energy” value was -0.03 kcal/mol.
In the case of GGTCTCACGTGTTGAG, the “relative binding free energy” value is reported as 0.24 kcal/mol.
For TAGTGCACGTGAGACT, the “relative binding free energy” value was 0.2 kcal/mol.
For GTGCACACGTGAGTGG, the “relative binding free energy” value was 0.33 kcal/mol.
With TGGAACACGTGAGGAA the “relative binding free energy” value was 0.32 kcal/mol.
For CTTTGCACGTGTAAGT, the “relative binding free energy” value was 0.15 kcal/mol.
For AAATTCACGTGTTAGG, the “relative binding free energy” value was 0.15 kcal/mol.
In the case of CGAGGCACGTGGTGGG, the “relative binding free energy” value is reported as -0.16 kcal/mol.
In the case of CTTTACACGTGTTGAT, the “relative binding free energy” value is reported as -0.06 kcal/mol.
CAATTCACGTGTGGGC was tested, and the “relative binding free energy” value was 0.34 kcal/mol.
With GACGGCACGTGTCGGG the “relative binding free energy” value was 0.01 kcal/mol.
TTGTACACGTGCGTCT was tested, and the “relative binding free energy” value was 0.03 kcal/mol.
In the case of TTTTTCACGTGAGGGT, the “relative binding free energy” value is reported as 0.49 kcal/mol.
With GTGGGCACGTGTCTTT the “relative binding free energy” value was -0.09 kcal/mol.
TAGTGCACGTGATATA was tested, and the “relative binding free energy” value was 0.05 kcal/mol.
In the case of TTATTCACGTGAGCGG, the “relative binding free energy” value is reported as 0.26 kcal/mol.
TAGTCCACGTGTTTGT was tested, and the “relative binding free energy” value was -0.02 kcal/mol.
TTCTCCACGTGTGGTT was tested, and the “relative binding free energy” value was -0.04 kcal/mol.
GTGGCCACGTGTGGTC was tested, and the “relative binding free energy” value was 0.06 kcal/mol.
AAGGACACGTGAGTGG was tested, and the “relative binding free energy” value was 0.22 kcal/mol.
With ACGGACACGTGATGGG the “relative binding free energy” value was 0.17 kcal/mol.
In the case of CTAATCACGTGTGTTT, the “relative binding free energy” value is reported as -0.02 kcal/mol.
In the case of TTGAGCACGTGGTCAT, the “relative binding free energy” value is reported as -0.11 kcal/mol.
GATAGCACGTGATGGC was tested, and the “relative binding free energy” value was 0.14 kcal/mol.
CGGTACACGTGTAGTT was tested, and the “relative binding free energy” value was 0.05 kcal/mol.
In the case of TTTCGCACGTGTTGCA, the “relative binding free energy” value is reported as 0.03 kcal/mol.
In the case of TGTCACACGTGGTAGG, the “relative binding free energy” value is reported as -0.12 kcal/mol.
For TCGAACACGTGGTTGG, the “relative binding free energy” value was 0.06 kcal/mol.
In the case of CTATTCACGTGGAATT, the “relative binding free energy” value is reported as 0.33 kcal/mol.
For GTTAGCACGTGGTCAG, the “relative binding free energy” value was -0.13 kcal/mol.
In the case of CTTGGCACGTGGCACG, the “relative binding free energy” value is reported as -0.04 kcal/mol.
With GGATACACGTGTATAT the “relative binding free energy” value was 0.05 kcal/mol.
With AAATGCACGTGGTGAG the “relative binding free energy” value was -0.02 kcal/mol.
With TGCGGCACGTGGGTTT the “relative binding free energy” value was -0.19 kcal/mol.
With GGTGTCACGTGCGGCA the “relative binding free energy” value was -0.04 kcal/mol.
ATTATCACGTGAATAT was tested, and the “relative binding free energy” value was 0.26 kcal/mol.
For AGGTCCACGTGTTTTA, the “relative binding free energy” value was -0.01 kcal/mol.
With TGGGGCACGTGCTGAG the “relative binding free energy” value was -0.25 kcal/mol.
In the case of TGTTGCACGTGAGAGG, the “relative binding free energy” value is reported as 0.24 kcal/mol.
In the case of TTTCTCACGTGCGTTA, the “relative binding free energy” value is reported as 0.25 kcal/mol.
In the case of GACGGCACGTGGTGTA, the “relative binding free energy” value is reported as -0.12 kcal/mol.
For ATAGGCACGTGGGCCT, the “relative binding free energy” value was -0.22 kcal/mol.
With AGTTTCACGTGAGTGT the “relative binding free energy” value was 0.37 kcal/mol.
AGTGTCACGTGATAGG was tested, and the “relative binding free energy” value was 0.21 kcal/mol.
For AGGTGCACGTGGTAGG, the “relative binding free energy” value was -0.09 kcal/mol.
In the case of TCAGTCACGTGAGGCT, the “relative binding free energy” value is reported as 0.23 kcal/mol.
GGGATCACGTGGTAAT was tested, and the “relative binding free energy” value was 0.1 kcal/mol.
ATGAGCACGTGATGGA was tested, and the “relative binding free energy” value was -0.03 kcal/mol.
In the case of ACGAGCACGTGGGTAG, the “relative binding free energy” value is reported as -0.2 kcal/mol.
With TCGTGCACGTGGTAAT the “relative binding free energy” value was -0.15 kcal/mol.
For AGGTTCACGTGCGAGT, the “relative binding free energy” value was 0.23 kcal/mol.
With TTTTACACGTGGAAGA the “relative binding free energy” value was 0.27 kcal/mol.
In the case of GTGGACACGTGGCGTA, the “relative binding free energy” value is reported as 0.01 kcal/mol.
In the case of GTAGTCACGTGGGACA, the “relative binding free energy” value is reported as 0.03 kcal/mol.
With ATGGGCACGTGTGTGG the “relative binding free energy” value was -0.01 kcal/mol.
In the case of GCGCTCACGTGATGGG, the “relative binding free energy” value is reported as 0.37 kcal/mol.
For GATAGCACGTGAGGAG, the “relative binding free energy” value was 0.36 kcal/mol.
With GATAGCACGTGGTGGC the “relative binding free energy” value was -0.09 kcal/mol.
In the case of AGGTGCACGTGATTAG, the “relative binding free energy” value is reported as 0.02 kcal/mol.
TGTCGCACGTGTGATT was tested, and the “relative binding free energy” value was -0.02 kcal/mol.
GTTAGCACGTGGCTTA was tested, and the “relative binding free energy” value was -0.17 kcal/mol.
With CGTGGCACGTGTGTAA the “relative binding free energy” value was -0.03 kcal/mol.
In the case of AGTTGCACGTGTCTTG, the “relative binding free energy” value is reported as 0.16 kcal/mol.
GGTTTCACGTGAGCTA was tested, and the “relative binding free energy” value was 0.42 kcal/mol.
For CCGTGCACGTGCGTGG, the “relative binding free energy” value was 0.01 kcal/mol.
CAGTGCACGTGCTGTG was tested, and the “relative binding free energy” value was -0.1 kcal/mol.
In the case of GAGCGCACGTGTTTGG, the “relative binding free energy” value is reported as -0.05 kcal/mol.
In the case of CAGTACACGTGTCGGG, the “relative binding free energy” value is reported as 0.18 kcal/mol.
In the case of GGATCCACGTGTAAGG, the “relative binding free energy” value is reported as 0.18 kcal/mol.
For TTGTTCACGTGCGTGT, the “relative binding free energy” value was 0.25 kcal/mol.
For ATGGTCACGTGCGCTT, the “relative binding free energy” value was 0.09 kcal/mol.
TGATGCACGTGCTTTC was tested, and the “relative binding free energy” value was 0.19 kcal/mol.
In the case of TTTATCACGTGAAGAG, the “relative binding free energy” value is reported as 0.38 kcal/mol.
In the case of TTCATCACGTGTGTTT, the “relative binding free energy” value is reported as 0.37 kcal/mol.
For AGGTACACGTGGAAAA, the “relative binding free energy” value was 0.33 kcal/mol.
In the case of GAGATCACGTGAAGTG, the “relative binding free energy” value is reported as 0.27 kcal/mol.
For TTTTTCACGTGGCAAA, the “relative binding free energy” value was 0.25 kcal/mol.
For ATATACACGTGTGAGG, the “relative binding free energy” value was 0.06 kcal/mol.
GGATGCACGTGTGCCG was tested, and the “relative binding free energy” value was 0.04 kcal/mol.
In the case of ATGCGCACGTGGGGAA, the “relative binding free energy” value is reported as -0.28 kcal/mol.
In the case of ATTTCCACGTGTGTTT, the “relative binding free energy” value is reported as 0.03 kcal/mol.
TGAATCACGTGTGTTT was tested, and the “relative binding free energy” value was 0.21 kcal/mol.
For GTGTGCACGTGGCGTC, the “relative binding free energy” value was -0.07 kcal/mol.
In the case of TTCTTCACGTGGCGGT, the “relative binding free energy” value is reported as 0.15 kcal/mol.
For TTGTCCACGTGGTGTT, the “relative binding free energy” value was -0.02 kcal/mol.
With TCGCGCACGTGTGGAG the “relative binding free energy” value was -0.05 kcal/mol.
With TTGCCCACGTGGTATG the “relative binding free energy” value was -0.12 kcal/mol.
With AGGGTCACGTGGAGAT the “relative binding free energy” value was 0.07 kcal/mol.
For ATAGTCACGTGTCTAG, the “relative binding free energy” value was 0.17 kcal/mol.
GATTCCACGTGTGTTA was tested, and the “relative binding free energy” value was 0.22 kcal/mol.
ATAGGCACGTGGAGGT was tested, and the “relative binding free energy” value was -0.09 kcal/mol.
In the case of TTTGGCACGTGGTTTA, the “relative binding free energy” value is reported as -0.19 kcal/mol.
In the case of GATATCACGTGTTTGA, the “relative binding free energy” value is reported as 0.14 kcal/mol.
For TAAATCACGTGGTGGC, the “relative binding free energy” value was 0.18 kcal/mol.
With AGTTGCACGTGGTTTT the “relative binding free energy” value was -0.06 kcal/mol.
For CGGGTCACGTGTACAG, the “relative binding free energy” value was 0.23 kcal/mol.
In the case of GTTTTCACGTGCTGTA, the “relative binding free energy” value is reported as 0.2 kcal/mol.
